What was measured:
[1] = molecular target: T1, recombinant hPD-L2 hIgG1 Fc-fusion protein (R&D Systems) (human, UniProt Q9BQ51 20-219); assay: flow cytometry, HEK 293 cells displaying the PD-1 construct, one dose of hPD-L2 Fc fusion; the reference itself
T1 construct: Bought from R&D Systems; also called hPD-L2 Fc-fusion protein; not shown: human IgG1 Fc
T1 sequence (looked up): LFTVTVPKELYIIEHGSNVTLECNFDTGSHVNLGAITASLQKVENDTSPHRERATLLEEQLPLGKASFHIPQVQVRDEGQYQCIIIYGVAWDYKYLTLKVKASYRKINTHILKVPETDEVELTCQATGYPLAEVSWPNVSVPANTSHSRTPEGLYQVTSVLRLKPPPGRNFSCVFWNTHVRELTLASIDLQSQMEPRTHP

[2] = molecular target: T2, recombinant hPD-L1 hIgG1 Fc-fusion protein (R&D Systems) (human, UniProt Q9NZQ7 partial chain); assay: flow cytometry, HEK 293 cells displaying the PD-1 construct, one dose of hPD-L1 Fc fusion; the reference itself
T2 construct: Bought from R&D Systems; also called hPD-L1 Fc-fusion protein; not shown: human IgG1 Fc
T2 sequence (Q9NZQ7 19-239 limits assumed): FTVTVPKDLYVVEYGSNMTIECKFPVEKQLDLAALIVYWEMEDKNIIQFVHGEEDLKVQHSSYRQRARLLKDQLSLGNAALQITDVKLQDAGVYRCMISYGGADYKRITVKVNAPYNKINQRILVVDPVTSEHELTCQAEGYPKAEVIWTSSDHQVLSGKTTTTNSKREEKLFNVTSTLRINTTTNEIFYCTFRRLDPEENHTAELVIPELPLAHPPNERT

- average binding normalized to wild type (AVE-hPD-L2) [1]: 1 relative to wild type
- average binding normalized to wild type (AVE-hPD-L1) [2]: 1 relative to wild type
B1: wild-type human PD-1 ectodomain (Leu 25-Thr 168) displayed on HEK 293 cells (hPD-1 Type I mCherry) (receptor)
chain: not shown
notes: also called WT; wild type PD-1; not shown: mCherry fluorescent protein at the C-terminus
